Here are results for 72 sequences from paper PMC10726135.

The list shows a part of the results. At the low end of the ranking the order means little. Measured with an extract: partners may take part in the binding.

In the test the target is T1, HNF4alpha2 (COS-7 nuclear extract) (UniProt P41235).
T1 sequence: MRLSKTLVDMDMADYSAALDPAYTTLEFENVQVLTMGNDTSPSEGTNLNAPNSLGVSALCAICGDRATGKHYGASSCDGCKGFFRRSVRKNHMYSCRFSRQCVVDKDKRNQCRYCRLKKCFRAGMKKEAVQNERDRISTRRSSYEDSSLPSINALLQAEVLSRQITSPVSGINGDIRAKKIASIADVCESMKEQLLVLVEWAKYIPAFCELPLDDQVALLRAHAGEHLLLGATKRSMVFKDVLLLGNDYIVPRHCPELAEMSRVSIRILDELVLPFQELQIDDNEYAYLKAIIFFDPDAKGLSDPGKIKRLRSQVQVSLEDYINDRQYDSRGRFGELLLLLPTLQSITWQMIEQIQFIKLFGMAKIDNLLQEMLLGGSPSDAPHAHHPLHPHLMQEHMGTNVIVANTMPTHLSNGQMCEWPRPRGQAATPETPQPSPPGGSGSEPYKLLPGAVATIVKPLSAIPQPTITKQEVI
In words: protein-binding microarray. As to conditions: COS-7 nuclear extract on double-stranded Agilent 4x180k PBM; binding buffer, salt, pH and temperature not given; high values mean tight binding; double strand, one strand shown; sequences stand for … in …GCCTAGGGAGATTAGAGTATCGGTCGA
In the case of CTTTGATCATATGCATTTCCCTAGATCACT, the binding signal (log2 normalized intensity) is -0.88.
As for TTAATAGAAGAAAGCCCTTTTTGGAATGTG, the figure is 0.655; as for TGATCTTTACCCTGGAATGCTGTTAGCACT, 0.538; as for ATCTCATCCTGTGACCAAGAATGTCTAACC, 1.17.
To ATAAGAAAGCAAAGTCCAACACAGAAGCCT belongs 1.38.
As for CTGCGCATACCATATGCATTCCTGCCTCAG, the figure is -1.09; as for GGATCCCATTCATGTGGGTCAACAGACAAA, 0.575; as for GTAGAGGTGATTTCAGACTATTTTATTTTC, -1.1.
For AACTCTTTACACAGTTCTGATACATTGGAC, the binding signal (log2 normalized intensity) is 3.08.
ATAACACAACCCCTACTGTACCCTATGCAC: the binding signal (log2 normalized intensity) turned out to be 3.03.
To AGACATCGACCTTTGTGGGCTTCAGACATT belongs 1.71.
As for CCTATGAGTCTGTAAAGTCAAAAACCAGTT, the figure is 1.08.
In the case of GACTGCGCTCCCAGAAGCCTCCGGTGTACC, the binding signal (log2 normalized intensity) is -1.09.
On to GTGAGTAGGTTAGATAGGAATCTGGATGGC, for which the binding signal (log2 normalized intensity) was found to be 0.0125.
GAGAGTTGCACCCAGGCCGTTGGACCAAGC: the binding signal (log2 normalized intensity) was -0.68.
As to GCAGAAAGGGCATGGATTTAGATAAGAGGC, the binding signal (log2 normalized intensity) was -0.975.
Consider ACTCCCTGACGCCATCTGGCGTCCCCCACC, for which the binding signal (log2 normalized intensity) turned out to be 4.27.
To GTCCCTGGATTGTGTTGCACTGTTTGCATA belongs 0.832; to AAAAGATGGAACAAGCCAGGTGTGCAGAGA, -0.804; to TAGCTTTCCCACCAAACCTGAAAAACCTCT, -0.921.
As for TAAAAATGCCTTTCATCTTTGAGAAAACTC, the figure is -0.684; as for CAGGAGTCGGGAGGTAGGGGTGGCGGGTTG, 0.616; as for AGTTCCAATAGCAAAACCTGATGTTTGGAC, 1.86.
As for CTTGTCCTTGACCCTTCCTCCCATTTGCTG, the binding signal (log2 normalized intensity) worked out at 2.29.
To AGAGGCCTTTGTGCTGACTAAGAGGAGAAG belongs -1.11.
In the case of GGCTAAAGATAACCTAGAAAGGAGAGATCA, the binding signal (log2 normalized intensity) is -1.11.
As for TACCTTTCCTGCATTAACATCAACATGGAC, the figure is 2.1; as for TTATCTTCCTCTGGCATCTGGTCAGGGGTC, 3.51; as for TTCAATTATTTACTTTAGTTAGAGTCACTG, 0.822.
Take TTGGGCTGTGTTTTGCCCCTGCAGAGTTTT: the binding signal (log2 normalized intensity) came out at 2.3.
To GCTTCCAAGGGGAATGTGGATGCTGGAATG belongs 0.986; to AGAGGAAAGATGGGGATATAATCATTCATG, -1.16.
Regarding GCATTCCACATTCTCCACTGGGAAGTAGAA, the binding signal (log2 normalized intensity) was -0.872.
For CTTCTGAGATGGAGCATGATGAAATTTCCT, the binding signal (log2 normalized intensity) was -1.19.
As for CCATGCCACAGAATCGCCCCACCCTGCCTG, the binding signal (log2 normalized intensity) came out at 2.66.
To AATGGAGTTTGGTTTAAAGTTCAAGTCATA belongs 2.62; to AACTTCTTGGCCTGCATAGCACTTTCATAA, -1.05; to TACCTGCCTGAGCTATCTGTTTGAGGTTCA, 1.54.
As for TGTTTGAATTGTGATAATAAATGTGTTTCA, the figure is 1.63; as for GACTTTGATCTTGCTGCTCTCGCCTGGAAG, -1.09; as for TTCATGTGTGGTGCAGATTCCACACTGGCT, -0.319.
To TGACTGGAGCAGAGCGATCAAAGGTCACAG belongs 6.52; to ATTTTCAGCCACCTTTATCTGATCAGAAAT, 0.329.
Consider GTTAGTGCTGCCTCTTCTGGGAAGAGTAGA, for which the binding signal (log2 normalized intensity) is -1.04.
As for CCAGGTAACTTTTGTCTCTGGAGGGATCAG, the binding signal (log2 normalized intensity) is 0.327.
As for TATCATCCACATATTTTCCCTATCTAGCCA, the figure is -1.16.
As for CTTCTCTGGGAGAAAGGGAGGCAGGTGAGC, the figure is -1.07; as for CAAGAATGCAAAGCCCTGGCTGACCTTTAG, 5.13.
With TGAGCCCAATCTAGCAAAAATCCTGCCAAA, the binding signal (log2 normalized intensity) is -1.01.
As for CAACAGGTGTTAAAATAACGACCTTTGGGC, the figure is 5.79; as for TATCTGTCCATCCCTCACTCCTGTCTTACC, 0.343.
To AGGTCACAGTAGGGAAAGTGGGGGGAAAGA belongs -0.786.
For the sequence TGACAACTGAATGTGACCTTTTGGACCACA, the binding signal (log2 normalized intensity) was found to be 6.82.
For the sequence CACTGGCTCTGGGGTCAAAGTCCCCTGAGC, the binding signal (log2 normalized intensity) came to 7.16.
As to CTTTGCTCTCCCTCCTCTCTGAGCAGTCAA, the binding signal (log2 normalized intensity) is -1.16.
On to CTGCAACCTGAGTGCCAGAGCTGTGAAGAC, for which the binding signal (log2 normalized intensity) is -1.2.
Turning to AAGATGTACCATTCATGGACAGCCTTGCCA, the binding signal (log2 normalized intensity) was -0.874.
As for GGAGCACCACGGTTTATTTTTATCTGTTTA, the figure is 1.34; as for ATAAAGGGTGAGTGCATGAATCAACTGTTG, 0.225.
As for TTGAAAGTTTGGTGGACTTTGGCCGTGAAG, the binding signal (log2 normalized intensity) worked out at 6.79.
Take CCCTGTCTCTCAGTCTCTGTGGGAGAGTAA: the binding signal (log2 normalized intensity) was determined as 1.64.
Regarding CCCATTTTATGGGCTAACGCTGCTGTCTGT, the binding signal (log2 normalized intensity) is 0.472.
Regarding GCCCTGGTCTCTGCTACCTGTAGCTGAGGG, the binding signal (log2 normalized intensity) was -0.991.
As for TTGCAAAGCAACTCCTCTGTACAGCTCTTG, the figure is -0.648.
To CCCAGAGCGGCAGCGCCTCCCGGTCACTAC belongs -1.08; to TCTTTGCCCCATAACCACCATTAGACTCTG, 2.49; to CCTTAGGCGAATGTCAAAGGTCTTTGGTGG, 2.44.
Consider TGAGCTGCTTTGGGTGGATTTGGAGATCAG, for which the binding signal (log2 normalized intensity) stood at 0.943.
On to CAACACTTAGGGTGGATACTTTGACTGAGA, for which the binding signal (log2 normalized intensity) is -0.657.
To GGCTCACAGAGAGGCTTCTGGCCAGGCAGA belongs -1.1; to GTTATCTCTGCTGATAGCATAAAGCTAGGA, -1.13; to AGAGGAAGATATTATCTCTGTCTGTCAAGG, 1.2.
